In the supplement of paper PMC11055344 one finds MIC data, which are given here for 51 test systems.

MIC of nasopharyngeal S. pneumoniae isolates by broth microdilution (range and time not stated); higher = less susceptible. No active / inactive call per row; the paper counts penicillin above 0.06 and amoxicillin above 0.5 mg/L as non-susceptible (EUCAST). The lowest value, 0.01, is taken as the floor ('<='); the source prints it plain. Penicillin G is assumed for 'penicillin'. Isolates are numbered anew. PBP alleles are the type numbers of penicillin-binding proteins 1a, 2b and 2x; equal numbers mean equal sequences. Some results are limits rather than exact numbers.

Compound in experiment [1]: CC1(C)S[C@@H]2[C@H](NC(=O)Cc3ccccc3)C(=O)N2[C@H]1C(=O)O [penicillin G]
The experiment is described as follows: Broth microdilution.

Compound in experiment [2]: CC1(C)S[C@@H]2[C@H](NC(=O)[C@H](N)c3ccc(O)cc3)C(=O)N2[C@H]1C(=O)O [amoxicillin]
As to the kind of experiment: Broth microdilution.

Turning to “Streptococcus pneumoniae isolate 73 (PBP alleles 1a 2b 2x: 0_0_53, serotype: 10A)”, the MIC in experiment [1] is 0.03 µg/mL; in experiment [2], no more than 0.01 µg/mL.

On to “Streptococcus pneumoniae isolate 74 (PBP alleles 1a 2b 2x: 1_2_2, serotype: 22F)”, for which the MIC in experiment [1] is 0.03 µg/mL; in experiment [2], no more than 0.01 µg/mL.

As to “Streptococcus pneumoniae isolate 75 (PBP alleles 1a 2b 2x: 2_6_0, serotype: 11A)”, the MIC in experiment [1] and in experiment [2] was no more than 0.01 µg/mL in each case.

Take “Streptococcus pneumoniae isolate 76 (PBP alleles 1a 2b 2x: 1_0_0, serotype: 9N)”: the MIC in experiment [1] was 0.03 µg/mL; in experiment [2], no more than 0.01 µg/mL.

Consider “Streptococcus pneumoniae isolate 77 (PBP alleles 1a 2b 2x: 2_0_6, serotype: 23A)”, for which the minimal inhibitory concentration (MIC) in experiment [1] and in experiment [2] was 0.03 µg/mL each time.

As for “Streptococcus pneumoniae isolate 78 (PBP alleles 1a 2b 2x: 78_0_0, serotype: Serogroup 24)”, the MIC in experiment [1] and in experiment [2] was no more than 0.01 µg/mL in each case.

For the test system “Streptococcus pneumoniae isolate 79 (PBP alleles 1a 2b 2x: 1_2_2, serotype: 22F)”, the MIC in experiment [1] and in experiment [2] was no more than 0.01 µg/mL throughout.

For “Streptococcus pneumoniae isolate 80 (PBP alleles 1a 2b 2x: 2_0_6, serotype: 23A)”, the minimal inhibitory concentration (MIC) in experiment [1] was 0.03 µg/mL; in experiment [2], no more than 0.01 µg/mL.

Turning to “Streptococcus pneumoniae isolate 81 (PBP alleles 1a 2b 2x: 2_0_2, serotype: 21)”, the minimal inhibitory concentration (MIC) in experiment [1] and in experiment [2] was no more than 0.01 µg/mL in each case.

As for “Streptococcus pneumoniae isolate 82 (PBP alleles 1a 2b 2x: 7_1_New, serotype: 16F)”, the MIC in experiment [1] and in experiment [2] was 0.25 µg/mL throughout.

With “Streptococcus pneumoniae isolate 83 (PBP alleles 1a 2b 2x: 13_New_43, serotype: 15A)”, the MIC in experiment [1] and in experiment [2] was 2 µg/mL each time.

Take “Streptococcus pneumoniae isolate 84 (PBP alleles 1a 2b 2x: 0_6_2, serotype: 16F)”: the MIC in experiment [1] was 0.03 µg/mL; in experiment [2] it was no more than 0.01 µg/mL.

As to “Streptococcus pneumoniae isolate 85 (PBP alleles 1a 2b 2x: 2_6_0, serotype: 11A)”, the minimum inhibitory concentration (MIC) in experiment [1] and in experiment [2] was no more than 0.01 µg/mL in each case.

Consider “Streptococcus pneumoniae isolate 86 (PBP alleles 1a 2b 2x: 2_0_6, serotype: 23A)”, for which the minimal inhibitory concentration (MIC) in experiment [1] is 0.03 µg/mL; in experiment [2] it was no more than 0.01 µg/mL.

Take “Streptococcus pneumoniae isolate 87 (PBP alleles 1a 2b 2x: 2_3_2, serotype: 3)”: the MIC in experiment [1] and in experiment [2] was no more than 0.01 µg/mL in each case.

For “Streptococcus pneumoniae isolate 88 (PBP alleles 1a 2b 2x: 78_0_0, serotype: Serogroup 24)”, the MIC in experiment [1] is 0.03 µg/mL; in experiment [2], no more than 0.01 µg/mL.

“Streptococcus pneumoniae isolate 89 (PBP alleles 1a 2b 2x: 2_3_2, serotype: 3)”: the minimum inhibitory concentration (MIC) in experiment [1] and in experiment [2] was 0.03 µg/mL throughout.

“Streptococcus pneumoniae isolate 90 (PBP alleles 1a 2b 2x: 86_82_162, serotype: Non-typeable/NCC2a)”: the MIC in experiment [1] and in experiment [2] was no more than 0.01 µg/mL each time.

On to “Streptococcus pneumoniae isolate 91 (PBP alleles 1a 2b 2x: 2_6_0, serotype: 11A)”, for which the minimal inhibitory concentration (MIC) in experiment [1] and in experiment [2] was no more than 0.01 µg/mL throughout.

For the test system “Streptococcus pneumoniae isolate 92 (PBP alleles 1a 2b 2x: 2_6_0, serotype: 11A)”, the minimal inhibitory concentration (MIC) in experiment [1] and in experiment [2] was no more than 0.01 µg/mL throughout.

On to “Streptococcus pneumoniae isolate 93 (PBP alleles 1a 2b 2x: 2_6_0, serotype: 11A)”, for which the minimum inhibitory concentration (MIC) in experiment [1] is 0.03 µg/mL; in experiment [2], no more than 0.01 µg/mL.

Turning to “Streptococcus pneumoniae isolate 94 (PBP alleles 1a 2b 2x: 2_0_2, serotype: 15B/C)”, the MIC in experiment [1] was 0.03 µg/mL; in experiment [2], no more than 0.01 µg/mL.

“Streptococcus pneumoniae isolate 95 (PBP alleles 1a 2b 2x: 1_0_0, serotype: 15A)”: the MIC in experiment [1] is 0.03 µg/mL; in experiment [2], no more than 0.01 µg/mL.

In the case of “Streptococcus pneumoniae isolate 96 (PBP alleles 1a 2b 2x: 2_0_2, serotype: 15B/C)”, the figures for the minimal inhibitory concentration (MIC) in experiment [1] and in experiment [2] were 0.03 µg/mL and no more than 0.01 µg/mL, respectively.

As to “Streptococcus pneumoniae isolate 97 (PBP alleles 1a 2b 2x: 2_53_77, serotype: 6C)”, the minimum inhibitory concentration (MIC) in experiment [1] and in experiment [2] was 0.125 µg/mL in each case.

On to “Streptococcus pneumoniae isolate 98 (PBP alleles 1a 2b 2x: 0_0_2, serotype: 10A)”, for which the minimal inhibitory concentration (MIC) in experiment [1] was 0.03 µg/mL; in experiment [2] it was no more than 0.01 µg/mL.

Regarding “Streptococcus pneumoniae isolate 99 (PBP alleles 1a 2b 2x: 2_6_0, serotype: 11A)”, the minimal inhibitory concentration (MIC) in experiment [1] and in experiment [2] was 0.03 µg/mL throughout.

“Streptococcus pneumoniae isolate 100 (PBP alleles 1a 2b 2x: 0_0_3, serotype: 35F)”: the minimal inhibitory concentration (MIC) is 0.03 µg/mL in experiment [1] and no more than 0.01 µg/mL in experiment [2].

With “Streptococcus pneumoniae isolate 101 (PBP alleles 1a 2b 2x: 2_0_6, serotype: 33F)”, the MIC in experiment [1] and in experiment [2] was no more than 0.01 µg/mL each time.

Regarding “Streptococcus pneumoniae isolate 102 (PBP alleles 1a 2b 2x: 7_1_1, serotype: 23B1)”, the MIC worked out at 0.25 µg/mL in experiment [1] and 0.06 µg/mL in experiment [2].

With “Streptococcus pneumoniae isolate 103 (PBP alleles 1a 2b 2x: 1_0_0, serotype: 9N)”, the minimum inhibitory concentration (MIC) in experiment [1] was 0.03 µg/mL; in experiment [2], no more than 0.01 µg/mL.

Turning to “Streptococcus pneumoniae isolate 104 (PBP alleles 1a 2b 2x: 2_6_0, serotype: 11A)”, the MIC in experiment [1] and in experiment [2] was no more than 0.01 µg/mL throughout.

As for “Streptococcus pneumoniae isolate 105 (PBP alleles 1a 2b 2x: 2_0_0, serotype: 17F)”, the MIC in experiment [1] is 0.03 µg/mL; in experiment [2] it was no more than 0.01 µg/mL.

With “Streptococcus pneumoniae isolate 106 (PBP alleles 1a 2b 2x: 7_1_1, serotype: 23B1)”, the MIC in experiment [1] amounted to 0.25 µg/mL; in experiment [2], 0.06 µg/mL.

As for “Streptococcus pneumoniae isolate 107 (PBP alleles 1a 2b 2x: 0_4_2, serotype: 6C)”, the MIC in experiment [1] and in experiment [2] was 0.03 µg/mL in each case.

Consider “Streptococcus pneumoniae isolate 108 (PBP alleles 1a 2b 2x: 2_6_0, serotype: 11A)”, for which the MIC in experiment [1] was 0.03 µg/mL; in experiment [2], no more than 0.01 µg/mL.

With “Streptococcus pneumoniae isolate 109 (PBP alleles 1a 2b 2x: 2_0_2, serotype: 21)”, the values for the minimum inhibitory concentration (MIC) in experiment [1] and in experiment [2] were 0.03 µg/mL and no more than 0.01 µg/mL, respectively.

As for “Streptococcus pneumoniae isolate 110 (PBP alleles 1a 2b 2x: 2_0_6, serotype: 23A)”, the minimal inhibitory concentration (MIC) in experiment [1] and in experiment [2] was 0.03 µg/mL each time.

Regarding “Streptococcus pneumoniae isolate 111 (PBP alleles 1a 2b 2x: 0_0_0, serotype: 23B)”, the minimum inhibitory concentration (MIC) in experiment [1] and in experiment [2] was no more than 0.01 µg/mL throughout.

With “Streptococcus pneumoniae isolate 112 (PBP alleles 1a 2b 2x: 2_6_0, serotype: 11A)”, the results for the MIC in experiment [1] and in experiment [2] were 0.03 µg/mL and no more than 0.01 µg/mL, respectively.

With “Streptococcus pneumoniae isolate 113 (PBP alleles 1a 2b 2x: 0_0_3, serotype: 35F)”, the minimal inhibitory concentration (MIC) in experiment [1] and in experiment [2] was no more than 0.01 µg/mL in each case.

Consider “Streptococcus pneumoniae isolate 114 (PBP alleles 1a 2b 2x: 0_0_3, serotype: 35F)”, for which the MIC in experiment [1] was 0.03 µg/mL; in experiment [2] it was no more than 0.01 µg/mL.

On to “Streptococcus pneumoniae isolate 115 (PBP alleles 1a 2b 2x: 1_4_2, serotype: 20)”, for which the MIC in experiment [1] and in experiment [2] was no more than 0.01 µg/mL throughout.

Turning to “Streptococcus pneumoniae isolate 116 (PBP alleles 1a 2b 2x: 0_0_3, serotype: 35F)”, the MIC in experiment [1] and in experiment [2] was no more than 0.01 µg/mL throughout.

As to “Streptococcus pneumoniae isolate 117 (PBP alleles 1a 2b 2x: 2_6_0, serotype: 11A)”, the minimum inhibitory concentration (MIC) in experiment [1] and in experiment [2] was no more than 0.01 µg/mL in each case.

Consider “Streptococcus pneumoniae isolate 118 (PBP alleles 1a 2b 2x: 7_1_1, serotype: 23B1)”, for which the minimal inhibitory concentration (MIC) came to 0.125 µg/mL in experiment [1] and 0.03 µg/mL in experiment [2].

For the test system “Streptococcus pneumoniae isolate 119 (PBP alleles 1a 2b 2x: 2_0_2, serotype: 15B/C)”, the MIC in experiment [1] is 0.03 µg/mL; in experiment [2], no more than 0.01 µg/mL.

As for “Streptococcus pneumoniae isolate 120 (PBP alleles 1a 2b 2x: 7_67_1, serotype: 23B1)”, the minimum inhibitory concentration (MIC) is 0.125 µg/mL in experiment [1] and 0.03 µg/mL in experiment [2].

Take “Streptococcus pneumoniae isolate 121 (PBP alleles 1a 2b 2x: 2_4_0, serotype: 38)”: the MIC in experiment [1] and in experiment [2] was 0.03 µg/mL throughout.

With “Streptococcus pneumoniae isolate 122 (PBP alleles 1a 2b 2x: 0_0_0, serotype: 15B/C)”, the minimal inhibitory concentration (MIC) in experiment [1] and in experiment [2] was 0.03 µg/mL each time.

On to “Streptococcus pneumoniae isolate 123 (PBP alleles 1a 2b 2x: 2_0_2, serotype: 21)”, for which the minimum inhibitory concentration (MIC) in experiment [1] and in experiment [2] was 0.03 µg/mL throughout.
